Test results: the supplement of paper PMC4967469
By IC50 is meant the dose at which the fit gives 50% viability; fits outside the tested doses are given as limits. The AUC spans the tested range (256-fold, ending at the top dose) of the same fit; values near 1 show little effect. An inferred top dose is not printed in the source and was worked back from the curve model. For some of these results: An entry number marks a drug with two screens in the source, which often give different values.

Tests used:
Assay in all cases: Viability of human cancer cell lines after 72 h of drug (GDSC screen)
[1] = compound: Cc1cc([C@@H](C)Nc2ccccc2C(=O)O)c2nc(N3CCOCC3)cc(=O)n2c1 [AZD6482]
Procedure: (§1)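 Human cancer cell lines in 384-well plates, medium with 10% serum, drug for 72 h over a 256-fold dose range (nine 2-fold or five 4-fold steps up to the top dose). Adherent lines were fixed and stained with the nucleic acid dye Syto60, suspension lines read with resazurin; signal relative to control wells, capped at 0 and 100%. One two-parameter sigmoid per drug and line, fitted in a mixed model over all curves with the slope shared within a line.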

[2] = compound: Cn1ncnc1[C@H]1c2n[nH]c(=O)c3cc(F)cc(c23)N[C@@H]1c1ccc(F)cc1 [BMN-673]; conditions: top dose 10 µM; top dose inferred
Procedure: as §1

[3] = compound: COc1cc(C(=O)NC2CCN(C)CC2)ccc1Nc1ncc2c(n1)N(C1CCCC1)CCC(=O)N2C(C)C [XMD11-85h]; conditions: top dose 10 µM; top dose inferred
Procedure: as §1

[4] = top dose 5 µM, screen: GDSC drug entry 1066, top dose inferred
[5] = top dose 5.12 µM, screen: GDSC drug entry 156

Cell Line	AUC [1, 4]	IC50 [1, 4]	AUC [1, 5]	IC50 [1, 5]	AUC [2]	IC50 [2]	AUC [3]	IC50 [3]
IST-MES1 (mesothelioma, adherent)	0.944	> 5 µM	0.94	> 5.12 µM	0.857	8.24 µM	0.915	> 10 µM
JEG-3 (urogenital system, adherent)	0.934	> 5 µM	0.991	> 5.12 µM	0.756	3.13 µM	0.988	> 10 µM
JHH-1 (liver, adherent)	0.731	1.52 µM	0.779	2.27 µM	0.865	> 10 µM	0.958	> 10 µM
JHOS-2 (ovary, adherent)	0.84	4.31 µM			0.662	1.91 µM	0.904	> 10 µM
JIMT-1 (breast, adherent)	0.904	> 5 µM	0.976	> 5.12 µM	0.734	3.1 µM	0.974	> 10 µM
K5 (thyroid, adherent)	0.864	4.07 µM	0.892	> 5.12 µM	0.523	0.721 µM	0.964	> 10 µM
KATOIII (stomach, semi-adherent)	0.978	> 5 µM			0.987	> 10 µM	0.972	> 10 µM
KM12 (large intestine, adherent)	0.949	> 5 µM	0.927	> 5.12 µM	0.817	6.23 µM	0.984	> 10 µM
KMRC-20 (kidney, adherent)	0.922	> 5 µM	0.982	> 5.12 µM	0.942	> 10 µM	0.982	> 10 µM
KP-N-YN (neuroblastoma, adherent)			0.98	> 5.12 µM	0.982	> 10 µM	0.92	> 10 µM
KU-19-19 (bladder, adherent)	0.939	> 5 µM	0.985	> 5.12 µM	0.569	0.962 µM	0.872	9.55 µM
KURAMOCHI (ovary, adherent)	0.899	> 5 µM	0.382	0.144 µM	0.884	> 10 µM	0.948	> 10 µM
KYSE-150 (oesophagus, adherent)	0.951	> 5 µM	0.928	> 5.12 µM	0.95	> 10 µM	0.962	> 10 µM
KYSE-220 (oesophagus, adherent)	0.925	> 5 µM	0.929	> 5.12 µM	0.815	5.9 µM	0.984	> 10 µM
KYSE-410 (oesophagus, adherent)	0.985	> 5 µM	0.978	> 5.12 µM	0.861	9.37 µM	0.914	> 10 µM
L-428 (Hodgkin lymphoma, suspension)	0.993	> 5 µM	0.977	> 5.12 µM	0.945	> 10 µM	0.992	> 10 µM

Cell Line	AUC [1, 4]	IC50 [1, 4]	AUC [1, 5]	IC50 [1, 5]	AUC [2]	IC50 [2]	AUC [3]	IC50 [3]
LB647-SCLC (small cell lung carcinoma, semi-adherent)	0.94	> 5 µM	0.944	> 5.12 µM	0.904	> 10 µM	0.94	> 10 µM
LB771-HNC (head and neck, adherent)	0.936	> 5 µM	0.929	> 5.12 µM	0.909	> 10 µM	0.948	> 10 µM
LB831-BLC (bladder, adherent)	0.929	> 5 µM	0.896	> 5.12 µM	0.858	8.44 µM	0.96	> 10 µM
LB996-RCC (kidney, adherent)	0.53	0.382 µM	0.924	> 5.12 µM	0.699	2.51 µM	0.932	> 10 µM
LB1047-RCC (kidney, adherent)	0.906	> 5 µM	0.873	> 5.12 µM	0.593	1.16 µM	0.929	> 10 µM
LC-1-sq (lung squamous cell carcinoma, adherent)	0.935	> 5 µM	0.982	> 5.12 µM	0.93	> 10 µM	0.975	> 10 µM
LCLC-97TM1 (large cell lung carcinoma, adherent)			0.868	> 5.12 µM	0.79	4.94 µM	0.94	> 10 µM
LNCaP-Clone-FGC (prostate, adherent)	0.796	2.73 µM	0.722		0.685	2.24 µM	0.928	> 10 µM
LXF-289 (lung adenocarcinoma, adherent)	0.789	2.17 µM	0.674	0.967 µM	0.724	2.67 µM	0.831	6.18 µM
M059J (glioma, adherent)	0.88	> 5 µM	0.916	> 5.12 µM	0.888	> 10 µM	0.961	> 10 µM
MC-CAR (haematopoietic neoplasm, suspension)	0.842	2.97 µM	0.88	4.32 µM	0.825	5.17 µM	0.907	> 10 µM
MDA-MB-415 (breast, adherent)	0.746		0.441	0.21 µM	0.948	> 10 µM	0.976	> 10 µM
MDST8 (large intestine, adherent)	0.958	> 5 µM	0.959	> 5.12 µM	0.828	6.11 µM	0.936	> 10 µM
MES-SA (uterus, adherent)	0.985	> 5 µM	0.932	> 5.12 µM	0.856	6.26 µM	0.894	8.91 µM
MFE-280 (endometrium, adherent)	0.949	> 5 µM	0.918	> 5.12 µM	0.956	> 10 µM	0.954	> 10 µM
